According to PubChem BioAssay AID1347165 (National Center for Advancing Translational Sciences (NCATS), 2019):
Several values for one entry are separate records, joined by “and”; a condition that tells them apart may be missing. Equal entries are not always repeated. The whole screen tested about 220,000 compounds, of which about 5,700 (2.6%) were called active. This list was built around the results that the source calls inconclusive (neither active nor inactive); the mix of calls is not that of the screen. Calls follow the shape of the dose curve; as a rule, active = well fitted inhibition curve with a large enough effect; inconclusive = small, poorly fitted or top-dose-only effect; inactive = no such curve, though single readings can be large or run the other way. Potencies beside an inconclusive call are fits to weak or partial responses and may not hold up.

Target: Lysine-specific demethylase 5B (Homo sapiens) (UniProt Q9UGL1)
Chain of UniProt Q9UGL1 (Q9UGL1 whole entry, looked up): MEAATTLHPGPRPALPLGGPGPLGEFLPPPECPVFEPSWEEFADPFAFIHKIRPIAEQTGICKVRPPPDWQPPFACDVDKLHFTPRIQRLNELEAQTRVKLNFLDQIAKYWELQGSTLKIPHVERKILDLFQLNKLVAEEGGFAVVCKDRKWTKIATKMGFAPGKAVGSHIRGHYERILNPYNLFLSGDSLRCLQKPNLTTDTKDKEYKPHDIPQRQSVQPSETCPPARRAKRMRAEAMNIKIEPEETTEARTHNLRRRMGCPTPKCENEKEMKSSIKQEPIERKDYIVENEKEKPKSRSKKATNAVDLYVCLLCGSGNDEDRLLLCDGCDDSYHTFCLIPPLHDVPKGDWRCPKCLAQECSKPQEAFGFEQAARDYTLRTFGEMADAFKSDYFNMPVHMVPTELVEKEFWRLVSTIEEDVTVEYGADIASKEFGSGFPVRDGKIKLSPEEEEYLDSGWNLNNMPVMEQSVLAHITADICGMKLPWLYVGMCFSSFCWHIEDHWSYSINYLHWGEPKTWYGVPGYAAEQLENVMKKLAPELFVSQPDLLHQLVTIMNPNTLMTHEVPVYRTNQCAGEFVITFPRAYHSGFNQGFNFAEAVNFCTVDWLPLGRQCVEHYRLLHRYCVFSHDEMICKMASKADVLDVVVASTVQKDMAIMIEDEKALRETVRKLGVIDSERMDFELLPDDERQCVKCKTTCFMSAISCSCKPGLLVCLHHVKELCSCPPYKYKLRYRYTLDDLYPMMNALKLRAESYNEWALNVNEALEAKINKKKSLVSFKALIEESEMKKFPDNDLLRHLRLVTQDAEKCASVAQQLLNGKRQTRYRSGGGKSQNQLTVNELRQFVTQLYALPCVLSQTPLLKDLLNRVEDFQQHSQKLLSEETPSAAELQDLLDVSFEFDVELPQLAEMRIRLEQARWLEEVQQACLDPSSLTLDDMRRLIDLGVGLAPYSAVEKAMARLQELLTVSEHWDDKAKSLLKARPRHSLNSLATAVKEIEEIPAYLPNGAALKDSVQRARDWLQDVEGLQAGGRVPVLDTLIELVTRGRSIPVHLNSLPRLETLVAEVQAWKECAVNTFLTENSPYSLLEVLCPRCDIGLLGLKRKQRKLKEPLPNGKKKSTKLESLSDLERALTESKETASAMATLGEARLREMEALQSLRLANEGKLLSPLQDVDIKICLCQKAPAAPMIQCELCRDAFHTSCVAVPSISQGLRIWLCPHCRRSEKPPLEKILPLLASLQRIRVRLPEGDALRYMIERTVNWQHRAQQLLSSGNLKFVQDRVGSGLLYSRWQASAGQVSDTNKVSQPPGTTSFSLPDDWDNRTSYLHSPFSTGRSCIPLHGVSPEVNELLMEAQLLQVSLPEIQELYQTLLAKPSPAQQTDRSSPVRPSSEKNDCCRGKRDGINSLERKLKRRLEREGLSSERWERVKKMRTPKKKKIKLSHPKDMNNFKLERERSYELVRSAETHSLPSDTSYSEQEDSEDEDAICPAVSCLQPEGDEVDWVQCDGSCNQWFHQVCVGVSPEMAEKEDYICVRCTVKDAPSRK
Assay: Primary screen for KDM5B Histone Demethylases FDH-coupled qHTS; also: nearly all actives have a fitted effect of over 70% in size; as to activity change, negative = inhibition: 0% is about no effect
Conditions: FDH-coupled NADH fluorescence (FDH is formaldehyde dehydrogenase); activity change, negative = inhibition: at 57.7 µM (top of the series) unless noted
Summary of the method: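 KDM5BΔAP (200 nM final) in 50 mM HEPES pH 7.5, 0.01% Tween-20 was preincubated 10 min at RT with compound over a concentration range. Substrate mix (H3K4me3 12.5 µM, α-KG 25 µM, Fe²⁺, ascorbate, NAD⁺, FDH) was added, and NADH fluorescence change over 30 min gave dose-response curves.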
Potency is read from the fitted curve at half-maximal effect; tags tell the direction and shape of the fitted curve.

Compound	Potency	activity change, negative = inhibition
Cc1cccc(NC(=O)Cn2ccn3nc(-c4ccc(F)cc4)c(CO)c3c2=O)c1	inconclusive: 31.6 µM [inhibitor, single point]	–
O=C(Nc1ccccc1)NC1CCN(c2nc3ncccc3o2)CC1	inconclusive: 35.5 µM [inhibitor, partial curve, poor fit] and active: 25.1 µM	–
Cc1ccc(NC(=O)Cn2c(=O)n(CCC(=O)N3CCc4ccccc4C3)c(=O)c3ccccc32)c(C)c1	inconclusive: 1.12 µM [inhibitor, partial curve, poor fit]	–
CN(CCNC(=O)c1cc2c(-c3ccccc3F)nn(C)c2s1)C1CCCCC1	inconclusive: 35.5 µM [inhibitor, partial curve, poor fit]	–
CCN1CCN(CC(O)COc2cccc(CN(C)Cc3cc(C)on3)c2)CC1 (stereo not given)	inconclusive: 20 µM [inhibitor, single point]	–
Cc1c(-c2ccccc2F)[nH]c2ccc(CNS(=O)(=O)C3CC3)cc12	active: 28.2 µM	–
Cc1ccccc1-c1nc(C#N)c(NCCN2CCOCC2)o1	inconclusive: 1.78 µM [inhibitor, partial curve, poor fit]	–
CCOC(=O)c1c(NC(=O)c2ccn(CC)n2)sc2c1CCC2	inconclusive: 28.2 µM [inhibitor, partial curve, poor fit]	–
Cc1ccc(-c2nc(C(=O)NCc3ccc(Cl)cc3)no2)cc1	–	inactive: -13.6%
CCOC(=O)c1ccccc1NC(=O)N(Cc1ccc(CC)cc1)Cc1cn[nH]c1-c1ccc(OC)cc1	inconclusive: 35.5 µM [inhibitor, partial curve, poor fit]	–
O=C(Cn1nc2c(cc1=O)CCCC2)Nc1nnc(C2CCC2)s1	–	inactive: 11.8%
COc1ccc(NS(=O)(=O)c2cc(-c3onc(C)c3C)ccc2C)c(OC)c1	inconclusive: 15.8 µM [inhibitor, partial curve, poor fit]	–
OC1CN(Cc2ccccc2)CCN(Cc2ccc(OC(F)F)cc2)C1 (stereo not given)	inconclusive: 22.4 µM [inhibitor, single point]	–
COc1ccc(-c2nc3cnccn3c2NC2CCCC2)cc1	inconclusive: 22.4 µM [inhibitor, partial curve, poor fit]	–
CCn1ccc(C(=O)N2CCCC(c3ccccc3)(c3ccccc3)C2)cc1=O	inconclusive: 0.708 µM [inhibitor, full curve, poor fit]	–
COc1ccc(CN[C@H]2C[C@H]3C(=O)NC[C@@H](CCC(=O)N4CCC(O)CC4)N3C2)cc1	inconclusive: 31.6 µM [inhibitor, single point]	–
CN1CCC(N2CC[C@H](c3nnc(-c4ccc(N(C)C)cc4)o3)C2)CC1	inconclusive: 39.8 µM [inhibitor, partial curve, poor fit]	–
O=C(Cc1ccc2c(c1)OCO2)N1CCNc2cnc(Nc3cccc(C(F)(F)F)c3)nc2C1	active: 14.1 µM	–
CCOC(=O)C1CCN(Cc2cc(=O)oc3cc(C)c(O)cc23)CC1	–	inactive: -2.23%
C=CCN1CCN(C(=O)c2ccc(N3CC4CC(C3)[C@H]3CCCC(=O)N3C4)nc2)CC1 (stereo not given in full)	inconclusive: 25.1 µM [inhibitor, partial curve, poor fit]	–
CCOc1ccccc1C(=O)N1CCC2(CC1)CN(c1ccncn1)CC2CO (stereo not given)	–	inactive: 4.75%
O/N=C/c1ccc(OCc2ccccc2)cc1	inconclusive: 14.1 µM [inhibitor, partial curve, poor fit]	–

Compound	Potency	activity change, negative = inhibition
c1coc(-c2nc(C3CCOC3)nn2C2Cc3ccccc3C2)c1 (stereo not given)	inconclusive: 22.4 µM [inhibitor, single point]	–
O=C(NC1CC1)c1nc(-c2ccc(F)cc2)c2ccccn12	active: 89.1 µM and active: 31.6 µM	–
COc1ccc(CNC(=O)CCn2ccn3nc4c(c3c2=O)CCCC4)c(OC)c1	–	inactive: 2.42%
CC(=O)N1CCc2nn(CC(=O)N3CCc4ccccc43)c(=O)cc2C1	–	inactive: 5.36%
COc1cc2c(cc1OC)CN(C(=O)/C=C/c1cccs1)CC2	inconclusive: 20 µM [inhibitor, single point]	–
CCc1nc(C)ccc1O	inconclusive: 39.8 µM [inhibitor, single point]	–
CC(=O)NCCCNC(=O)c1cc2ccccc2[nH]1	inconclusive: 35.5 µM [inhibitor, partial curve, poor fit]	–
Cc1ccc(NC(=O)c2cc3c(N4CCCC4)nc(C)cn3n2)cc1	inconclusive: 3.16 µM [inhibitor, partial curve, poor fit]	–
CCN1CCN(c2nc3ccccc3nc2NS(=O)(=O)c2cc(Cl)ccc2Cl)CC1	–	inactive: -25.7%
Cc1cn2c(=O)cc(COc3ccc(NC(=O)c4ccc(C(C)(C)C)cc4)cc3)nc2s1	inconclusive: 15.8 µM [inhibitor, partial curve, poor fit]	–
CN(C)c1ccc(C(CNC(=O)c2ccc(C(C)(C)C)cc2)N2CCCC2)cc1 (stereo not given)	inconclusive: 28.2 µM [inhibitor, single point]	–
OC[C@@H]1CN(Cc2ccc3[nH]ccc3c2)C[C@H]1c1ccccn1	inconclusive: 25.1 µM [inhibitor, partial curve]	–
O=C(Nc1ccc(OC(F)F)cc1)c1nc(S(=O)(=O)Cc2ccc(F)cc2)ncc1Cl	inconclusive: 14.1 µM [inhibitor, partial curve, poor fit]	–
N#Cc1ccc(S(=O)(=O)Nc2c(NCC3CCCCC3)c3ccccc3oc2=O)cc1	–	inactive: -11.6%
COc1ccc(C(=O)N2CCCC(n3cc(-c4nc(-c5ccccc5)no4)nn3)C2)cc1F (stereo not given)	–	inactive: -8.34%
CCc1noc(-c2cccn3c(CNC(=O)Cc4ccc(C)cc4)nnc23)n1	active: 25.1 µM	–
Cc1cc(O)c(C(c2ccccc2)N2CCC(C)CC2)c(=O)n1Cc1ccco1 (stereo not given)	inconclusive: 2.51 µM [inhibitor, partial curve, poor fit]	–
Cc1ncc(CO)c(CN2CCC3(Cc4ccccc4CNC3=O)C2)c1O (stereo not given)	active: 79.4 µM	–
COc1ccccc1-c1cc(NC(=O)C(C)SC)n[nH]1 (stereo not given)	–	inactive: -2.25%
COC(=O)C1=C(C)N(C2CCCC2)C(=O)C1(NC(=O)C1CC1)C(F)(F)F (stereo not given)	–	inactive: -4.58%
Cc1nc2cc(F)ccc2cc1C(=O)N1CCN(Cc2ccccc2F)CC1	–	inactive: 8.58%
CC(C)c1noc(-c2cccn3c(CNC(=O)CCc4ccccc4)nnc23)n1	active: 14.1 µM	–

Compound	Potency	activity change, negative = inhibition
CC(C)N1C[C@@H]2C[C@H]1C(=O)N(Cc1cccnc1)c1ccccc1O2	inconclusive: 20 µM [inhibitor, partial curve, poor fit]	–
Cc1cccc(C)c1Nc1sc(C(=O)c2ccccc2)c(N)c1S(=O)(=O)c1ccccc1	inconclusive: 15.8 µM [inhibitor, partial curve, poor fit]	–
CCc1nc2c(c(-c3ccc(Cl)cc3)n1)CN(Cc1cccc(OC)c1)CC2	inconclusive: 31.6 µM [inhibitor, partial curve, poor fit]	–
Cc1ccsc1C(=O)N1CCc2c(nc3cc[nH]n3c2=O)C1	active: 31.6 µM	–
COc1ccc2nc3sc(C(=O)NCCc4ccc(Cl)cc4)cc3cc2c1	–	inactive: -26.9%
O=C(NCC(=O)N1CCC(Cc2ccccc2)CC1)c1ccc(Cl)cc1	–	inactive: -8.16%
Cc1nn2c(c1-c1cccnc1N1CCOCC1)N(CCC(C)C)CCC2	inconclusive: 28.2 µM [inhibitor, partial curve, poor fit]	–
COc1ccc(-c2c3c(=O)n(C)c(=O)n(C)c3c3n2-c2ccccc2NC3c2ccc(C#N)cc2)cc1 (stereo not given)	inconclusive: 1.78 µM [inhibitor, partial curve, poor fit]	–
Cc1cccc(C(C)C)c1NC(=O)CSc1nnc(-c2cc(-c3ccccc3)n[nH]2)n1N	–	inactive: 21.3%
CCS(=O)(=O)c1ncc(Cl)c(C(=O)Nc2ccc(S(=O)(=O)N(C)c3ccccc3)cc2)n1	inconclusive: 8.91 µM [inhibitor, partial curve, poor fit]	–
CC1CCCCN1CCNC(=O)c1ccc(Cn2c(SCc3ccccc3)nc3cccnc32)cc1 (stereo not given)	inconclusive: 25.1 µM [inhibitor, partial curve, poor fit]	–
CC(=O)Nc1ccc(C)cc1-c1nnc(SCC(=O)Nc2cc(Cl)ccc2Cl)[nH]c1=O	–	inactive: 18.7%
O=C(c1cc(F)ccc1F)N1CCN(c2nnc3ccc(Cl)cn23)CC1	inconclusive: 14.1 µM [inhibitor, partial curve, poor fit]	–
Brc1cccc(-c2nnn3c2nc(NC2CCCCC2)c2ccccc23)c1	inconclusive: 10 µM [inhibitor, partial curve, poor fit]	–
CCc1nc(C)sc1C(=O)N1C[C@@H](CN2CCCN(C)CC2)[C@@H](CO)C1	–	inactive: -25%
CC(C)CCN1C(=O)CC(NNC(=O)c2ccc(S(=O)(=O)N3CCCC3)cc2)C1=O (stereo not given)	inconclusive: 14.1 µM [inhibitor, partial curve, poor fit]	–
O=C(NCCCc1ccccc1)C1CCCN(c2nc3ncccc3o2)C1 (stereo not given)	inconclusive: 15.8 µM [inhibitor, partial curve, poor fit]	–
CCn1nc(-c2ccc(C)c(S(=O)(=O)N3CCCC3)c2)c2c(c1=O)CCCC2	inconclusive: 1.78 µM [inhibitor, partial curve, poor fit]	–
Cc1ccc(-c2nnc(NC(=O)c3ccco3)s2)cc1	inconclusive: 20 µM [inhibitor, partial curve, poor fit]	–
CCn1c(NCCc2ccccc2)nc2c1c(=O)[nH]c(=O)n2C	–	inactive: 11.8%
COc1ccccc1C(=O)Nc1nnc(SCc2cc(=O)c3ccccc3[nH]2)s1	inconclusive: 39.8 µM [inhibitor, single point]	–
